According to PubChem BioAssay AID686979 (National Center for Advancing Translational Sciences (NCATS), 2013):
Hit rate of the full screen: of about 420,000 compounds, about 50,000 (12%) were called active. Inconclusive means that the source gave no clear call. Such entries were picked first, then a sample of the others. Calls follow the shape of the dose curve; as a rule, active = well fitted inhibition curve with a large enough effect; inconclusive = small, poorly fitted or top-dose-only effect; inactive = flat fitted curve, though single readings scatter. No potency is given beside an inconclusive call; the fits are too rough.
Potency is read from the fitted curve at half-maximal effect; tags tell the direction and shape of the fitted curve.

Test: qHTS for Inhibitors of human tyrosyl-DNA phosphodiesterase 1 (TDP1): qHTS in cells in presence of CPT; also: nearly all actives have a fitted effect of over 55% in size
Details: chicken DT40 Tdp1-/-;hTDP1 cells + 20 nM CPT, ATP luminescence, 48 h; series mostly up to 46.2 µM
In short: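 Cell growth measured by CellTiter-Glo luminescence after a minimum 48 h, 37 C compound exposure with 20 nM CPT in Tdp1-knockout DT40 cells stably expressing hTDP1, seeded 400/well; qHTS titration format.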
With `COc1ccc(-c2nn3c(C4CCCCC4)nnc3s2)cc1OC` the Potency was active: 14.6 µM. In the case of `COc1ccc(CNc2ncnc3ccc(-c4ccc(N(C)C)cc4)cc23)c(OC)c1`, the Potency is reported as active: 23.1 µM. For `O=S(=O)(NCC(c1ccc2c(c1)OCO2)N1CCOCC1)c1ccc(Br)cc1` (stereo unspecified), the Potency was active: 16.4 µM. With `O=c1[nH]c(C2CC2)nc2sc3c(c12)CCCC3` the Potency was “inactive”. In the case of `Cc1c(C(=O)OCc2ccccc2)[nH]c2c1C(=O)CC(c1ccc(C(C)(C)C)cc1)C2` (stereo unspecified), the Potency is reported as inconclusive [inhibitor, single point]. For `COc1ccc(OC)c(CNC(=O)CCN2C(=O)COc3ccccc32)c1`, the Potency was “inactive”. For `O=C(CSc1cn(Cc2ccccc2)c2ccccc12)Nc1nccs1`, the Potency was inconclusive [inhibitor, single point]. For `O=C(CSc1nnc2c(n1)[nH]c1ccccc12)Nc1ccc(N2CCOCC2)cc1`, the Potency was inconclusive [inhibitor, partial curve, poor fit]. With `CCOC(=O)c1cccc(NC(=O)Cn2cc3c(n2)CCC(C)C3)c1` (stereo unspecified) the Potency was inconclusive [inhibitor, partial curve, poor fit]. For `CC1=C(C(=O)OCc2ccccc2)C(c2ccc(C(C)(C)C)cc2)NC(=O)N1CCCCCC(=O)O` (stereo unspecified), the Potency was inconclusive [inhibitor, single point]. In the case of `COc1ccc(CN2CCCC(CNC(=O)c3ccc(F)cc3)C2)cc1OC` (stereo unspecified), the Potency is reported as “inactive”. For `O=C(N/N=C/c1cccnc1)c1ccccc1OCc1cccc(Br)c1`, the Potency was inconclusive [inhibitor, single point]. For `O=C(O)c1cc(/C=C/c2ccc(N3CCOCC3)c([N+](=O)[O-])c2)nc2ccccc12`, the Potency was inconclusive [inhibitor, single point]. For `Cc1nn(-c2ccc(F)cc2)c(C)c1CN1CCN(CCc2ccccc2)C(CCO)C1` (stereo unspecified), the Potency was inconclusive [inhibitor, single point]. With `COc1cc(C(=O)Nc2ccccc2-c2nc(-c3ccccc3)no2)cc(OC)c1OC` the Potency was “inactive”. With `CC(C)c1ccc(NC(=O)C2CCN(C(=O)c3ccc(F)cc3)CC2)cc1` the Potency was inconclusive [inhibitor, single point]. In the case of `Cc1ccc(CN2CCCn3nc(C(=O)NCCc4ccccc4C)cc3C2=O)cc1`, the Potency is reported as “inactive”. In the case of `c1ccc(CNc2nc3ccccc3[nH]2)cc1`, the Potency is reported as inconclusive [inhibitor, single point]. For `CCc1cccc(NC(=O)c2cc3c(=O)n(Cc4ccccc4)ccc3nc2C)c1`, the Potency was inconclusive [inhibitor, single point]. For `CCN1C(c2ccc(F)cc2)=CS/C1=C(/C#N)c1nnc2n1-c1ccccc1SC2`, the Potency was inconclusive [inhibitor, single point]. In the case of `COc1ccc(N2CC(C(=O)Nc3nnc(SCC(=O)NCC4CCCO4)s3)CC2=O)cc1` (stereo unspecified), the Potency is reported as inconclusive [inhibitor, single point]. With `Cc1ccc(OCC(=O)c2ccc(Cl)s2)c([N+](=O)[O-])n1` the Potency was active: 3.66 µM. With `Cc1ccc(-n2nnnc2SCC(=O)Nc2ccccc2-c2ccccc2)cc1C` the Potency was inconclusive [inhibitor, single point]. For `Cc1scc(C(=O)N2CCN(c3ccc(Cl)cc3)CC2)c1C`, the Potency was inconclusive [inhibitor, partial curve]. For `Nc1c2c(nn1-c1ccccc1)CCC2`, the Potency was inconclusive [inhibitor, partial curve, poor fit]. In the case of `O=C1Oc2ccccc2C(=O)/C1=C\N1CCN(c2ccccc2)CC1`, the Potency is reported as “inactive”. With `COc1ccc(S(=O)(=O)N2CCN(C(=O)CCc3c[nH]c4ccccc34)CC2)cc1` the Potency was “inactive”. For `CCN(CC)c1nc2ccccc2nc1C(=O)Nc1ccc(C(C)=O)cc1`, the Potency was inconclusive [inhibitor, single point]. In the case of `COCCCNC(=O)COc1ccc2oc3c(c2c1)CCCC3`, the Potency is reported as inconclusive [inhibitor, single point]. With `CC(=O)N(C)c1ccc(OCC(O)Cn2c(C)nc3ccccc32)cc1` (stereo unspecified) the Potency was active: 5.8 µM. With `Cc1ccc(C)c(NC(=O)CN(C)S(=O)(=O)c2cccc3nsnc23)c1` the Potency was “inactive”. With `Cc1c(C)c2ccc(OCC(=O)Nc3ccccn3)cc2oc1=O` the Potency was “inactive”. With `Cc1ccc(C(CNS(=O)(=O)c2ccc(Cl)cc2)N2CCN(C)CC2)cc1` (stereo unspecified) the Potency was inconclusive [inhibitor, single point]. In the case of `CCOc1ccc(/C=N/Nc2ccccn2)cc1`, the Potency is reported as inconclusive [inhibitor, full curve, poor fit]. In the case of `COc1ccc(C2(OC)Oc3cc(OC)ccc3C(=O)C2(O)OC)cc1` (stereo unspecified), the Potency is reported as active: 23.1 µM. For `Cc1cccc(N(C)c2nc3ccc(C(=O)c4ccccc4)cc3n3c(C)nnc23)c1`, the Potency was inconclusive [inhibitor, single point]. In the case of `COC(=O)C(NC(=O)CSc1nc(N)cc(=O)[nH]1)c1ccccc1` (stereo unspecified), the Potency is reported as “inactive”. In the case of `Clc1ccc2nc(C3CCCCC3)c(Cc3ccsc3)n2c1`, the Potency is reported as active: 23.1 µM. For `CCc1ccc(-n2c(SCc3c(C)noc3C)nnc2-c2ccncc2)cc1`, the Potency was active: 20.6 µM. In the case of `CC(C)c1ccc(/C=C2\C=Cc3ccccc32)cc1`, the Potency is reported as inconclusive [inhibitor, single point]. With `O=C(/C=C/c1ccco1)Nc1ccccc1N1CCOCC1` the Potency was inconclusive [inhibitor, single point]. In the case of `COC(=O)c1ccc(NC(=S)NC2CCCCC2)cc1`, the Potency is reported as “inactive”. In the case of `COc1ccc(C2=NN(C(=O)CSc3nc(=O)n4cccc(C)c4n3)C(c3ccc(C)cc3)C2)cc1` (stereo unspecified), the Potency is reported as inconclusive [inhibitor, single point]. With `CCN1C(=O)C2(C(C#N)=C(N)Oc3n[nH]c(-c4ccc(Cl)cc4)c32)c2ccccc21` (stereo unspecified) the Potency was inconclusive [inhibitor, single point]. In the case of `c1ccc(Cn2c3ccccc3c3nnc(SCCN4CCCCC4)nc32)cc1`, the Potency is reported as active: 23.1 µM. With `Cc1nn(Cc2cccc(F)c2)c(C)c1NC(=O)c1ccc(COc2ccccc2Cl)cc1` the Potency was active: 14.6 µM. With `N=c1ncn(Cc2ccccc2)c2nc(SCCOc3ccccc3)[nH]c12` the Potency was “inactive”. For `O=C(Nc1nc(-c2ccc(Cl)cc2)cs1)C1=COCCO1`, the Potency was active: 23.1 µM. With `CCCCn1c(SCC(=O)N2CCCc3ccccc32)nc2c1c(=O)n(C)c(=O)n2C` the Potency was active: 17.8 µM. For `COc1ccccc1NC(=O)CN1CCN(CC(=O)Nc2ccc(Cl)c(C(F)(F)F)c2)CC1`, the Potency was active: 14.6 µM. In the case of `CCOc1ccc(NC(=O)CN(C)C(=O)Cc2ccsc2)cc1OCC`, the Potency is reported as “inactive”. With `Cc1cccc(COc2ccc(/C=N/NC(=O)c3nnn(-c4nonc4N)c3COc3ccc(F)cc3)cc2)c1` the Potency was inconclusive [inhibitor, single point]. In the case of `O=C(Nc1ccc2ccccc2c1)C(c1ccc(C(F)(F)F)cc1)n1c(=O)c(-c2cc3ccccc3[nH]2)nc2ccccc21` (stereo unspecified), the Potency is reported as inconclusive [inhibitor, single point]. With `COCC(=O)NC1(c2nnnn2CCOC(=O)Nc2ccc(Cl)cc2)CCCCC1` the Potency was “inactive”. For `Cc1ccc(O)c(-c2cc(-c3ccccc3F)[nH]n2)c1`, the Potency was inconclusive [inhibitor, partial curve]. In the case of `COC(=O)c1cc(COC(=O)c2nc3nc(C)cc(C)n3n2)oc1C`, the Potency is reported as inconclusive [inhibitor, single point]. For `Cc1nn(-c2ccccc2)c2c1C(c1ccc(O)c(O)c1)N1C(=N2)C(Nc2ccccc2)=Nc2ccccc21` (stereo unspecified), the Potency was “inactive”. In the case of `CC1(C(=O)OCC(=O)Nc2cc(S(=O)(=O)N3CCOCC3)ccc2Cl)CC1(Cl)Cl` (stereo unspecified), the Potency is reported as inconclusive [inhibitor, single point]. For `COc1ccc(CC(=O)Nc2ccc3c(c2)OC2(CCCC2)O3)c(OC)c1`, the Potency was inconclusive [inhibitor, single point]. In the case of `COC(=O)c1c(NC(=O)COC(=O)[C@@H](NS(=O)(=O)c2cccc(Cl)c2)C(C)C)sc2c1CCC2`, the Potency is reported as inconclusive [inhibitor, single point]. With `N#Cc1ccc(-c2ccc(F)cc2)nc1Oc1ccccc1` the Potency was inconclusive [inhibitor, partial curve]. In the case of `COc1ccccc1NC(=O)Cn1cc(S(=O)(=O)Cc2ccccc2)c2ccccc21`, the Potency is reported as inconclusive [inhibitor, single point]. For `O=C(COC(=O)CNS(=O)(=O)c1ccccc1)Nc1ncc(Cl)cc1Cl`, the Potency was “inactive”. With `Fc1ccc(CNc2ncnc3cc(Cl)ccc23)cc1` the Potency was inconclusive [inhibitor, single point]. With `CCC(NS(=O)(=O)c1cn(C)nc1C)c1ccccc1` (stereo unspecified) the Potency was “inactive”. With `Cc1ccc(-c2csc(-c3nc(-c4ccc(Br)s4)cs3)n2)cc1` the Potency was “inactive”. With `Cc1ccc(-n2cccn2)c(CN2CCCC(C(=O)c3ccc4c(c3)OCO4)C2)c1` (stereo unspecified) the Potency was inconclusive [inhibitor, single point]. With `CCOC(=O)Cc1cnc(NC(=O)CSc2nc(N)cc(=O)[nH]2)s1` the Potency was inconclusive [inhibitor, single point]. For `Cc1ccc(-c2nnn(CC(=O)NC(=O)NC3CCCCC3)n2)cc1`, the Potency was inconclusive [inhibitor, partial curve]. In the case of `Cc1cccc(NC(=O)CSc2nc3c(c(=O)[nH]2)CCC3)c1C`, the Potency is reported as “inactive”. In the case of `O=C(NCc1cccnc1)c1cc(C2CCCCN2C(=O)OCc2ccccc2)on1` (stereo unspecified), the Potency is reported as inconclusive [inhibitor, single point].
